# The supplement of paper PMC9446081
# Screen size: about 39,000 compounds; about 220 (0.56%) showed activity. This is one part of the list.
# System: Escherichia coli K-12 BW25113
# Assay: relative growth (OD600 normalised to plate interquartile mean) (fraction); higher = less growth inhibition, active = 0.2 or less
# Settings: 50 µM; LB; incubation time: overnight (16-24 h)
# 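Also: static incubation at 37 °C against the wild-type strain, values averaged over two biological replicates.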
row,Compound,relative growth
1,CO[C@@H](CN(C)C(=O)Nc1ccc(C(F)(F)F)cc1)[C@@H](C)CN(Cc1ccccc1Cl)[C@@H](C)CO,inactive: 1.03
2,O=C(/C=C/c1ccc(O)c(O)c1)O[C@H]1[C@H](O)C[C@](O)(C(=O)O)C[C@H]1OC(=O)/C=C/c1ccc(O)c(O)c1,inactive: 0.989
3,C[C@H](CO)N1C[C@H](C)[C@@H](CN(C)Cc2ccncc2)OCCCC[C@H](C)Oc2ccc(NC(=O)Nc3ccccc3)cc2C1=O,inactive: 1.01
4,Cc1noc(C)c1NC(=O)N(C)C[C@H]1Oc2ccc(NC(=O)c3ccncc3)cc2C(=O)N([C@@H](C)CO)C[C@@H]1C,inactive: 1
5,O=C(O)C=Cc1ccc(O)c(O)c1,inactive: 0.98
6,C[C@H](CO)N1C[C@H](C)[C@@H](CN(C)S(=O)(=O)c2ccc(Cl)cc2)OCCCC[C@H](C)Oc2ccc(NC(=O)c3ccncc3)cc2C1=O,inactive: 1.01
7,C[C@@H]1CCCCO[C@H](CN(C)S(=O)(=O)c2ccc(F)cc2)[C@H](C)CN([C@@H](C)CO)C(=O)c2cc(NC(=O)CCC(F)(F)F)ccc2O1,inactive: 1.03
8,Nc1ccc(Oc2ccc3ccccc3c2Cl)c(Cl)c1,inactive: 0.974
9,COc1ccc(S(=O)(=O)N(C)C[C@@H]2Oc3ncc(C#Cc4ccc(F)cc4)cc3C(=O)N([C@H](C)CO)C[C@@H]2C)cc1,inactive: 1.05
10,CCOc1ccc([C@@H](C)N)cc1OCC,inactive: 0.981
11,O=C(CCCCCC(=O)Nc1ccccc1O)N/N=C/[C@H](O)[C@@H](O)[C@H](O)[C@H](O)CO,inactive: 1
12,C[C@H]1CN([C@@H](C)CO)C(=O)Cc2cc(NC(=O)C3CCCCC3)ccc2O[C@@H]1CN(C)Cc1ccc(Cl)c(Cl)c1,inactive: 0.968
13,C[C@H](CO)N1C[C@H](C)[C@H](CN(C)Cc2ccc(C(F)(F)F)cc2)Oc2ccc(NC(=O)CCC(F)(F)F)cc2C1=O,inactive: 1.02
14,C[C@H]1CN([C@@H](C)CO)S(=O)(=O)c2ccc(-c3cncnc3)cc2O[C@H]1CN(C)C(=O)c1cccc(F)c1,inactive: 1.01
15,C[C@@H]1CN([C@H](C)CO)S(=O)(=O)c2ccc(C#Cc3ccccc3)cc2O[C@H]1CN(C)C(=O)CN(C)C,inactive: 1.01
16,C[C@@H](NC(=O)C[C@H]1CC[C@H](NC(=O)CN2CCOCC2)[C@H](CO)O1)c1ccccc1,inactive: 0.995
17,CC(C)CC#Cc1ccc2c(c1)O[C@H](CN(C)C(=O)Cc1ccncc1)[C@H](C)CN([C@H](C)CO)S2(=O)=O,inactive: 0.931
18,C[C@@H]1CN([C@H](C)CO)C(=O)c2cc(NC(=O)c3ccccc3)ccc2O[C@@H](C)CCCCO[C@H]1CN(C)Cc1ccc(C(F)(F)F)cc1,inactive: 1.03
19,C[C@H]1CN([C@@H](C)CO)C(=O)c2cc(NC(=O)Nc3cccc4ccccc34)ccc2O[C@@H]1CN(C)Cc1ccccc1,inactive: 0.991
20,C[C@@H]1CN([C@H](C)CO)C(=O)c2cc(NC(=O)Cc3ccccc3)ccc2O[C@@H](C)CCCCO[C@@H]1CN(C)C(=O)CCC(F)(F)F,inactive: 0.993

row,Compound,relative growth
1,CCOC(=O)c1ccc(CNS(=O)(=O)c2ccc(S(=O)(=O)N3CCOCC3)cc2)o1,inactive: 0.997
2,NCC[C@H]1CC[C@H](NC(=O)NC2CCCCC2)[C@@H](CO)O1,inactive: 0.995
3,C[C@@H]1CN([C@@H](C)CO)C(=O)c2cccc(NC(=O)C3CCOCC3)c2O[C@@H]1CN(C)S(=O)(=O)c1cccs1,inactive: 0.986
4,COc1ccc(C#Cc2ccc3c(c2)O[C@@H](CN(C)S(=O)(=O)c2ccccc2F)[C@@H](C)CN([C@@H](C)CO)S3(=O)=O)cc1,inactive: 1.04
5,C[C@@H]1CCCCO[C@@H](CN(C)Cc2ccncc2)[C@@H](C)CN([C@@H](C)CO)C(=O)c2cc(NC(=O)NC3CCCCC3)ccc2O1,inactive: 0.997
6,C[C@H]1CCCCO[C@@H](CN(C)CC2CCCCC2)[C@@H](C)CN([C@@H](C)CO)C(=O)c2cc(NC(=O)Cc3ccccc3)ccc2O1,inactive: 1.02
7,C[C@H](CO)N1C[C@H](C)[C@@H](CN(C)C(=O)c2ccccc2)OCCCC[C@H](C)Oc2ccc(NC(=O)CCC(F)(F)F)cc2C1=O,inactive: 0.99
8,Cl.Nc1ccc(N=Nc2ccccc2)c(N)n1,inactive: 1.01
9,CO[C@@H]1CN(C)C(=O)c2cc(NC(=O)C3CCOCC3)ccc2OC[C@H](C)N(Cc2cccnc2)C[C@H]1C,inactive: 0.982
10,COc1ccc(S(=O)(=O)N2C[C@H](O)COC[C@H]3O[C@@H](CC(=O)N[C@@H]4CCN(Cc5ccccc5)C4)CC[C@@H]32)cc1,inactive: 1.05
11,O=C(CN1C(=O)c2cccc3cccc(c23)C1=O)N1CCN(CCN2C(=O)[C@@H]3[C@@H](C2=O)[C@@H]2C=C[C@@H]3C2)CC1,inactive: 0.993
12,C[C@H]1CN([C@@H](C)CO)C(=O)c2cc(NS(=O)(=O)c3cn(C)cn3)ccc2O[C@H]1CN(C)Cc1ccncc1,inactive: 1.01
13,COc1ccc(NC(=O)N(C)C[C@@H]2OCCCC[C@@H](C)Oc3ccc(NS(=O)(=O)c4ccc(Cl)cc4)cc3C(=O)N([C@@H](C)CO)C[C@H]2C)cc1,inactive: 1.01
14,C[C@@H]1CCCCO[C@H](CN(C)C(=O)Nc2ccc(F)cc2)[C@H](C)CN([C@@H](C)CO)C(=O)c2cc(NS(=O)(=O)c3cccs3)ccc2O1,inactive: 1.06
15,CC12CCC(=O)C=C1CCC1C2C(O)CC2(C)C1CCC2(O)C(=O)COC(=O)CCC(=O)O (centres undefined),inactive: 0.961
16,Nc1c2ccccc2nc2ccccc12,active: 0.0461
17,C[C@@H]1CN([C@H](C)CO)C(=O)c2cccc(NC(=O)CCCCCC(=O)Nc3ccccc3N)c2O[C@H]1CN(C)S(C)(=O)=O,inactive: 1.01
18,Cc1noc(C)c1S(=O)(=O)N(C)C[C@H]1OCCCC[C@@H](C)Oc2ccc(N(C)C)cc2C(=O)N([C@H](C)CO)C[C@@H]1C,inactive: 1.01
19,C[C@H]1CN([C@@H](C)CO)C(=O)CCCn2nncc2CO[C@H]1CN(C)S(=O)(=O)c1ccc(-n2cccn2)cc1,inactive: 1.02
